# Results as given in the supplement of paper PMC8728848.
# Some of the results follow.
# B1: MAL-II (Maackia amurensis), P93248 (protein)
# chain: ATSNSKPTQVLLATFLTFFFLLLNNVNSSDELSFTINNFVPNEADLLFQGEASVSSTGVLQLTRVENGQPQQYSVGRALYAAPVRIWDNTTGSVASFSTSFTFVVKAPNPTITSDGLAFFLAPPDSQIPSGRVSKYLGLFNNSNSDSSNQIVAVEFDTYFGHSYDPWDPNYRHIGIDVNGIESIKTVQWDWINGGVAFATITYLAPNKTLIASLVYPSNQTSFIVAASVDLKEILPEWVRVGFSAATGYPTQVETHDVLSWSFTSTLEANSDAATENNVHIARYTA
# What was measured:
# Assay in all cases: glycan array binding signal (z-score within array); higher = stronger binding
# Details in all cases: glycan notation: IUPAC condensed, linker removed
# [1] = target: Neu5Ac(a2-6)Gal(b1-4)GlcNAc(b1-3)[Neu5Ac(a2-6)Gal(b1-4)GlcNAc(b1-6)]GalNAc
# Summary of the method: (§1)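 The Consortium for Functional Glycomics database supplied 3228 glycan arrays, of which those lacking an available protein sequence were dropped. The binding signal, a within-array Z-score, was averaged across arrays of the same protein sequence and across linkers. Negative scores can be read as non-binding.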
# [2] = target: Neu5Ac(a2-6)Gal(b1-4)GlcNAc(b1-6)GalNAc
# Summary of the method: as §1
# [3] = target: Neu5Ac(a2-6)Gal(b1-4)GlcNAc(b1-6)[Gal(b1-3)GlcNAc(b1-3)]Gal(b1-4)Glc
# Summary of the method: as §1
# [4] = target: Neu5Ac(a2-6)Gal(b1-4)GlcNAc(b1-6)[Gal(b1-3)]GalNAc
# Summary of the method: as §1
# [5] = target: Neu5Ac(a2-6)Gal(b1-4)GlcNAc6S
# Summary of the method: as §1
# [6] = target: Neu5Ac(a2-6)GalNAc
# Summary of the method: as §1
# [7] = target: Neu5Ac(a2-6)GalNAc(b1-4)GlcNAc
# Summary of the method: as §1
# [8] = target: Neu5Ac(a2-6)GalNAc(b1-4)GlcNAc6S
# Summary of the method: as §1
# [9] = target: Neu5Ac(a2-6)GlcNAc(b1-4)GlcNAc
# Summary of the method: as §1
# [10] = target: Neu5Ac(a2-6)GlcNAc(b1-4)GlcNAc(b1-4)GlcNAc
# Summary of the method: as §1
# [11] = target: Neu5Ac(a2-8)Neu5Ac
# Summary of the method: as §1
# [12] = target: Neu5Ac(a2-8)Neu5Ac(a2-3)Gal(b1-3)GalNAc(b1-4)[Neu5Ac(a2-3)]Gal(b1-4)Glc
# Summary of the method: as §1
# [13] = target: Neu5Ac(a2-8)Neu5Ac(a2-3)Gal(b1-3)GalNAc(b1-4)[Neu5Ac(a2-8)Neu5Ac(a2-3)]Gal(b1-4)Glc
# Summary of the method: as §1
# [14] = target: Neu5Ac(a2-8)Neu5Ac(a2-3)Gal(b1-4)Glc
# Summary of the method: as §1
# [15] = target: Neu5Ac(a2-8)Neu5Ac(a2-3)Gal(b1-4)GlcNAc
# Summary of the method: as §1
# [16] = target: Neu5Ac(a2-8)Neu5Ac(a2-3)[Gal(b1-3)GalNAc(b1-4)]Gal(b1-4)Glc
# Summary of the method: as §1
# [17] = target: Neu5Ac(a2-8)Neu5Ac(a2-3)[GalNAc(b1-4)]Gal(b1-4)Glc
# Summary of the method: as §1
# [18] = target: Neu5Ac(a2-8)Neu5Ac(a2-8)Neu5Ac
# Summary of the method: as §1
# [19] = target: Neu5Ac(a2-8)Neu5Ac(a2-8)Neu5Ac(a2-3)Gal(b1-4)Glc
# Summary of the method: as §1
# [20] = target: Neu5Ac(a2-8)Neu5Ac(a2-8)Neu5Ac(a2-3)[Gal(b1-3)GalNAc(b1-4)]Gal(b1-4)Glc
# Summary of the method: as §1
# [21] = target: Neu5Ac(a2-8)Neu5Ac(a2-8)Neu5Ac(a2-3)[GalNAc(b1-4)]Gal(b1-4)Glc
# Summary of the method: as §1
# [22] = target: Neu5Ac(a2-8)Neu5Ac(a2-8)Neu5Ac(a2-8)Neu5Ac(a2-3)[GalNAc(b1-4)]Gal(b1-4)Glc
# Summary of the method: as §1
# [23] = target: Neu5Ac(a2-8)Neu5Gc(a2-3)Gal(b1-4)GlcNAc
# Summary of the method: as §1
# [24] = target: Neu5Ac(b1-6)GalNAc
# Summary of the method: as §1
# [25] = target: Neu5Ac(b2-6)Gal(b1-4)GlcNAc
# Summary of the method: as §1
# [26] = target: Neu5Ac(b2-6)GalNAc
# Summary of the method: as §1
# [27] = target: Neu5Ac9Ac(a2-3)Gal(b1-3)GlcNAc
# Summary of the method: as §1
# [28] = target: Neu5Ac9Ac(a2-3)Gal(b1-4)GlcNAc
# Summary of the method: as §1
# [29] = target: Neu5Ac9Ac(a2-6)Gal(b1-4)GlcNAc
# Summary of the method: as §1
# [30] = target: Neu5Gc(a2-3)Gal(b1-3)GlcNAc
# Summary of the method: as §1
# [31] = target: Neu5Gc(a2-3)Gal(b1-3)[Fuc(a1-4)]GlcNAc
# Summary of the method: as §1
# [32] = target: Neu5Gc(a2-3)Gal(b1-4)Glc
# Summary of the method: as §1
# [33] = target: Neu5Gc(a2-3)Gal(b1-4)GlcNAc
# Summary of the method: as §1
# [34] = target: Neu5Gc(a2-3)Gal(b1-4)GlcNAc(b1-3)Gal(b1-4)GlcNAc(b1-2)Man(a1-3)[Neu5Gc(a2-3)Gal(b1-4)GlcNAc(b1-3)Gal(b1-4)GlcNAc(b1-2)Man(a1-6)]Man(b1-4)GlcNAc(b1-4)GlcNAc
# Summary of the method: as §1
# [35] = target: Neu5Gc(a2-3)Gal(b1-4)[Fuc(a1-3)]GlcNAc
# Summary of the method: as §1
# [36] = target: Neu5Gc(a2-6)Gal(b1-4)GlcNAc
# Summary of the method: as §1
# [37] = target: Neu5Gc(a2-6)GalNAc
# Summary of the method: as §1
# [38] = target: Neu5Gc(a2-8)Neu5Ac(a2-3)Gal(b1-4)GlcNAc
# Summary of the method: as §1
# [39] = target: Neu5Gc(a2-8)Neu5Gc(a2-3)Gal(b1-4)GlcNAc
# Summary of the method: as §1
# [40] = target: Neu5Gc(a2-8)Neu5Gc(a2-3)Gal(b1-4)GlcNAc(b1-3)Gal(b1-4)GlcNAc
# Summary of the method: as §1
# [41] = target: Neu5Gc(a2-8)Neu5Gc(a2-6)Gal(b1-4)GlcNAc
# Summary of the method: as §1
# [42] = target: Neu5Gc(b2-6)Gal(b1-4)GlcNAc
# Summary of the method: as §1
binder,measurement,setting,value
B1,glycan array binding signal (z-score),[1],-0.211
same,glycan array binding signal (z-score),[2],-0.077
same,glycan array binding signal (z-score),[3],-0.207
same,glycan array binding signal (z-score),[4],-0.167
same,glycan array binding signal (z-score),[5],-0.231
same,glycan array binding signal (z-score),[6],-0.215
same,glycan array binding signal (z-score),[7],-0.218
same,glycan array binding signal (z-score),[8],-0.268
same,glycan array binding signal (z-score),[9],-0.351
same,glycan array binding signal (z-score),[10],-0.229
same,glycan array binding signal (z-score),[11],-0.192
same,glycan array binding signal (z-score),[12],-0.263
same,glycan array binding signal (z-score),[13],-0.237
same,glycan array binding signal (z-score),[14],-0.167
same,glycan array binding signal (z-score),[15],-0.255
same,glycan array binding signal (z-score),[16],-0.261
same,glycan array binding signal (z-score),[17],-0.19
same,glycan array binding signal (z-score),[18],-0.238
same,glycan array binding signal (z-score),[19],-0.2
same,glycan array binding signal (z-score),[20],-0.049
same,glycan array binding signal (z-score),[21],-0.209
same,glycan array binding signal (z-score),[22],-0.171
same,glycan array binding signal (z-score),[23],-0.139
same,glycan array binding signal (z-score),[24],-0.261
same,glycan array binding signal (z-score),[25],-0.231
same,glycan array binding signal (z-score),[26],-0.193
same,glycan array binding signal (z-score),[27],-0.229
same,glycan array binding signal (z-score),[28],-0.164
same,glycan array binding signal (z-score),[29],-0.15
same,glycan array binding signal (z-score),[30],-0.186
same,glycan array binding signal (z-score),[31],-0.226
same,glycan array binding signal (z-score),[32],-0.13
same,glycan array binding signal (z-score),[33],-0.167
same,glycan array binding signal (z-score),[34],-0.186
same,glycan array binding signal (z-score),[35],-0.207
same,glycan array binding signal (z-score),[36],-0.185
same,glycan array binding signal (z-score),[37],-0.202
same,glycan array binding signal (z-score),[38],-0.289
same,glycan array binding signal (z-score),[39],-0.304
same,glycan array binding signal (z-score),[40],-0.246
same,glycan array binding signal (z-score),[41],-0.198
same,glycan array binding signal (z-score),[42],-0.117
